According to the supplement of paper PMC8728848:
Some of the results follow.

Columns and labels:
Assay in all cases: glycan array binding signal (z-score within array); higher = stronger binding
Conditions in all cases: glycan notation: IUPAC condensed, linker removed
[1] = target: Gal(b1-3)[Fuc(a1-4)]GlcNAc(b1-3)Gal(b1-4)[Fuc(a1-3)]GlcNAc
In short: (§1)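 The Consortium for Functional Glycomics database supplied 3228 glycan arrays, of which those lacking an available protein sequence were dropped. The binding signal, a within-array Z-score, was averaged across arrays of the same protein sequence and across linkers. Negative scores can be read as non-binding.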

[2] = target: Gal(b1-3)[GlcNAc(b1-6)]GalNAc
In short: as §1

[3] = target: Gal(b1-3)[Neu5Ac(a2-6)]GalNAc
In short: as §1

[4] = target: Gal(b1-3)[Neu5Ac(a2-6)]GlcNAc(b1-6)Gal(b1-4)Glc
In short: as §1

[5] = target: Gal(b1-3)[Neu5Ac(b2-6)]GalNAc
In short: as §1

[6] = target: Gal(b1-4)GalNAc(a1-3)[Fuc(a1-2)]Gal(b1-4)GlcNAc
In short: as §1

[7] = target: Gal(b1-4)GalNAc(b1-3)[Fuc(a1-2)]Gal(b1-4)GlcNAc
In short: as §1

Gal(b1-4)Glc = target: Gal(b1-4)Glc
In short: as §1

Gal(b1-4)Glc6S = target: Gal(b1-4)Glc6S
In short: as §1

Gal(b1-4)GlcNAc = target: Gal(b1-4)GlcNAc
In short: as §1

[8] = target: Gal(b1-4)GlcNAc(a1-6)Gal(b1-4)GlcNAc
In short: as §1

[9] = target: Gal(b1-4)GlcNAc(b1-2)Man(a1-3)[Gal(b1-4)GlcNAc(b1-2)Man(a1-6)]Man(b1-4)GlcNAc(b1-4)GlcNAc
In short: as §1

[10] = target: Gal(b1-4)GlcNAc(b1-3)Gal(b1-3)GlcNAc
In short: as §1

[11] = target: Gal(b1-4)GlcNAc(b1-3)Gal(b1-4)Glc
In short: as §1

[12] = target: Gal(b1-4)GlcNAc(b1-3)Gal(b1-4)GlcNAc
In short: as §1

[13] = target: Gal(b1-4)GlcNAc(b1-3)Gal(b1-4)GlcNAc(b1-3)Gal(b1-4)GlcNAc
In short: as §1

[14] = target: Gal(b1-4)GlcNAc(b1-3)Gal(b1-4)[Fuc(a1-3)]GlcNAc(b1-3)Gal(b1-4)[Fuc(a1-3)]GlcNAc
In short: as §1

[15] = target: Gal(b1-4)GlcNAc(b1-3)GalNAc
In short: as §1

[16] = target: Gal(b1-4)GlcNAc(b1-3)[Gal(b1-4)GlcNAc(b1-6)]Gal(b1-4)GlcNAc
In short: as §1

[17] = target: Gal(b1-4)GlcNAc(b1-3)[GlcNAc(b1-6)]Gal(b1-4)GlcNAc
In short: as §1

[18] = target: Gal(b1-4)GlcNAc(b1-6)Gal(b1-4)GlcNAc
In short: as §1

[19] = target: Gal(b1-4)GlcNAc(b1-6)Gal(b1-4)GlcNAc(b1-6)GalNAc
In short: as §1

[20] = target: Gal(b1-4)GlcNAc(b1-6)GalNAc
In short: as §1

[21] = target: Gal(b1-4)GlcNAc(b1-6)[Gal(b1-3)]GalNAc
In short: as §1

Gal3S(b1-3)GalNAc = target: Gal3S(b1-3)GalNAc
In short: as §1

Gal3S(b1-3)GlcNAc = target: Gal3S(b1-3)GlcNAc
In short: as §1

[22] = target: Gal3S(b1-3)[Fuc(a1-4)]GlcNAc
In short: as §1

Gal3S(b1-4)Glc = target: Gal3S(b1-4)Glc
In short: as §1

Gal3S(b1-4)Glc6S = target: Gal3S(b1-4)Glc6S
In short: as §1

Gal3S(b1-4)GlcNAc = target: Gal3S(b1-4)GlcNAc
In short: as §1

Gal3S(b1-4)GlcNAc6S = target: Gal3S(b1-4)GlcNAc6S
In short: as §1

[23] = target: Gal3S(b1-4)[Fuc(a1-3)]Glc
In short: as §1

Gal3S4S(b1-4)GlcNAc = target: Gal3S4S(b1-4)GlcNAc
In short: as §1

Gal3S6S(b1-4)GlcNAc = target: Gal3S6S(b1-4)GlcNAc
In short: as §1

Gal3S6S(b1-4)GlcNAc6S = target: Gal3S6S(b1-4)GlcNAc6S
In short: as §1

Gal4S(b1-4)GlcNAc = target: Gal4S(b1-4)GlcNAc
In short: as §1

Gal4S6S(b1-4)GlcNAc = target: Gal4S6S(b1-4)GlcNAc
In short: as §1

Gal6S(b1-4)Glc = target: Gal6S(b1-4)Glc
In short: as §1

Gal6S(b1-4)Glc6S = target: Gal6S(b1-4)Glc6S
In short: as §1

Gal6S(b1-4)GlcNAc = target: Gal6S(b1-4)GlcNAc
In short: as §1

Gal6S(b1-4)GlcNAc6S = target: Gal6S(b1-4)GlcNAc6S
In short: as §1

GalNAc(a1-3)Gal = target: GalNAc(a1-3)Gal
In short: as §1

GalNAc(a1-3)GalNAc = target: GalNAc(a1-3)GalNAc
In short: as §1

GalNAc(b1-3)Gal = target: GalNAc(b1-3)Gal
In short: as §1

[24] = target: GalNAc(b1-3)Gal(a1-4)Gal(b1-4)GlcNAc
In short: as §1

GalNAc(b1-3)GalNAc = target: GalNAc(b1-3)GalNAc
In short: as §1

GalNAc(b1-4)GlcNAc = target: GalNAc(b1-4)GlcNAc
In short: as §1

Glc(a1-4)Glc = target: Glc(a1-4)Glc
In short: as §1

Glc(a1-6)Glc(a1-6)Glc = target: Glc(a1-6)Glc(a1-6)Glc
In short: as §1

Glc(b1-4)Glc = target: Glc(b1-4)Glc
In short: as §1

Glc(b1-6)Glc = target: Glc(b1-6)Glc
In short: as §1

GlcA(b1-3)Gal = target: GlcA(b1-3)Gal
In short: as §1

GlcA(b1-3)GlcNAc = target: GlcA(b1-3)GlcNAc
In short: as §1

GlcA(b1-6)Gal = target: GlcA(b1-6)Gal
In short: as §1

[25] = target: GlcNAc(a1-3)Gal(b1-4)GlcNAc
In short: as §1

[26] = target: GlcNAc(a1-6)Gal(b1-4)GlcNAc
In short: as §1

[27] = target: GlcNAc(b1-2)Gal(b1-3)GalNAc
In short: as §1

[28] = target: GlcNAc(b1-2)Man(a1-3)[GlcNAc(b1-2)Man(a1-6)]Man(b1-4)GlcNAc(b1-4)GlcNAc
In short: as §1

GlcNAc(b1-3)Gal = target: GlcNAc(b1-3)Gal
In short: as §1

[29] = target: GlcNAc(b1-3)Gal(b1-3)GalNAc
In short: as §1

GlcNAc(b1-3)Gal(b1-4)Glc = target: GlcNAc(b1-3)Gal(b1-4)Glc
In short: as §1

[30] = target: GlcNAc(b1-3)Gal(b1-4)GlcNAc
In short: as §1

[31] = target: GlcNAc(b1-3)Gal(b1-4)GlcNAc(b1-3)Gal(b1-4)GlcNAc
In short: as §1

GlcNAc(b1-3)GalNAc = target: GlcNAc(b1-3)GalNAc
In short: as §1

GlcNAc(b1-3)Man = target: GlcNAc(b1-3)Man
In short: as §1

[32] = target: GlcNAc(b1-3)[GlcNAc(b1-4)][GlcNAc(b1-6)]GlcNAc
In short: as §1

[33] = target: GlcNAc(b1-3)[GlcNAc(b1-6)]Gal(b1-4)GlcNAc
In short: as §1

[34] = target: GlcNAc(b1-3)[GlcNAc(b1-6)]GalNAc
In short: as §1

[35] = target: GlcNAc(b1-4)Gal(b1-4)GlcNAc
In short: as §1

GlcNAc(b1-4)GlcNAc = target: GlcNAc(b1-4)GlcNAc
In short: as §1

[36] = target: GlcNAc(b1-4)GlcNAc(b1-4)GlcNAc
In short: as §1

[37] = target: GlcNAc(b1-4)GlcNAc(b1-4)GlcNAc(b1-4)GlcNAc(b1-4)GlcNAc
In short: as §1

[38] = target: GlcNAc(b1-4)GlcNAc(b1-4)GlcNAc(b1-4)GlcNAc(b1-4)GlcNAc(b1-4)GlcNAc
In short: as §1

[39] = target: GlcNAc(b1-4)[GlcNAc(b1-6)]GalNAc
In short: as §1

[40] = target: GlcNAc(b1-6)Gal(b1-4)GlcNAc
In short: as §1

B1: Glycodelin A (Homo sapiens), P09466 (protein)
chain: MLCLLLTLGVALVCGVPAMDIPQTKQDLELPKLAGTWHSMAMATNNISLMATLKAPLRVHITSLLPTPEDNLEIVLHRWENNSCVEKKVLGEKTENPKKFKINYTVANEATLLDTDYDNFLFLCLQDTTTPIQSMMCQYLARVLVEDDEIMQGFIRAFRPLPRHLWYLLDLKQMEEPCRF
glycan array binding signal (z-score) [1]: -0.44 | glycan array binding signal (z-score) [2]: 0.309 | glycan array binding signal (z-score) [3]: -0.314 | glycan array binding signal (z-score) [4]: -0.362 | glycan array binding signal (z-score) [5]: -0.465 | glycan array binding signal (z-score) [6]: -0.317 | glycan array binding signal (z-score) [7]: -0.364 | glycan array binding signal (z-score) (Gal(b1-4)Glc): -0.395 | glycan array binding signal (z-score) (Gal(b1-4)Glc6S): -0.418 | glycan array binding signal (z-score) (Gal(b1-4)GlcNAc): -0.424 | glycan array binding signal (z-score) [8]: -0.269 | glycan array binding signal (z-score) [9]: -0.437 | glycan array binding signal (z-score) [10]: -0.433 | glycan array binding signal (z-score) [11]: -0.32 | glycan array binding signal (z-score) [12]: -0.418 | glycan array binding signal (z-score) [13]: -0.465 | glycan array binding signal (z-score) [14]: -0.463 | glycan array binding signal (z-score) [15]: -0.373 | glycan array binding signal (z-score) [16]: -0.32 | glycan array binding signal (z-score) [17]: -0.437 | glycan array binding signal (z-score) [18]: -0.419 | glycan array binding signal (z-score) [19]: -0.473 | glycan array binding signal (z-score) [20]: -0.374 | glycan array binding signal (z-score) [21]: -0.36 | glycan array binding signal (z-score) (Gal3S(b1-3)GalNAc): 0.023 | glycan array binding signal (z-score) (Gal3S(b1-3)GlcNAc): 0.12 | glycan array binding signal (z-score) [22]: 3.69 | glycan array binding signal (z-score) (Gal3S(b1-4)Glc): -0.226 | glycan array binding signal (z-score) (Gal3S(b1-4)Glc6S): 1.24 | glycan array binding signal (z-score) (Gal3S(b1-4)GlcNAc): -0.331 | glycan array binding signal (z-score) (Gal3S(b1-4)GlcNAc6S): -0.334 | glycan array binding signal (z-score) [23]: -0.37 | glycan array binding signal (z-score) (Gal3S4S(b1-4)GlcNAc): -0.288 | glycan array binding signal (z-score) (Gal3S6S(b1-4)GlcNAc): -0.168 | glycan array binding signal (z-score) (Gal3S6S(b1-4)GlcNAc6S): -0.456 | glycan array binding signal (z-score) (Gal4S(b1-4)GlcNAc): -0.451 | glycan array binding signal (z-score) (Gal4S6S(b1-4)GlcNAc): -0.305 | glycan array binding signal (z-score) (Gal6S(b1-4)Glc): 0.625 | glycan array binding signal (z-score) (Gal6S(b1-4)Glc6S): -0.395 | glycan array binding signal (z-score) (Gal6S(b1-4)GlcNAc): -0.342 | glycan array binding signal (z-score) (Gal6S(b1-4)GlcNAc6S): -0.098 | glycan array binding signal (z-score) (GalNAc(a1-3)Gal): -0.099 | glycan array binding signal (z-score) (GalNAc(a1-3)GalNAc): -0.339 | glycan array binding signal (z-score) (GalNAc(b1-3)Gal): -0.229 | glycan array binding signal (z-score) [24]: -0.336 | glycan array binding signal (z-score) (GalNAc(b1-3)GalNAc): -0.44 | glycan array binding signal (z-score) (GalNAc(b1-4)GlcNAc): 2.06 | glycan array binding signal (z-score) (Glc(a1-4)Glc): -0.422 | glycan array binding signal (z-score) (Glc(a1-6)Glc(a1-6)Glc): -0.44 | glycan array binding signal (z-score) (Glc(b1-4)Glc): -0.39 | glycan array binding signal (z-score) (Glc(b1-6)Glc): 1.92 | glycan array binding signal (z-score) (GlcA(b1-3)Gal): -0.368 | glycan array binding signal (z-score) (GlcA(b1-3)GlcNAc): -0.029 | glycan array binding signal (z-score) (GlcA(b1-6)Gal): -0.4 | glycan array binding signal (z-score) [25]: -0.443 | glycan array binding signal (z-score) [26]: -0.3 | glycan array binding signal (z-score) [27]: -0.483 | glycan array binding signal (z-score) [28]: 0.842 | glycan array binding signal (z-score) (GlcNAc(b1-3)Gal): -0.37 | glycan array binding signal (z-score) [29]: -0.055 | glycan array binding signal (z-score) (GlcNAc(b1-3)Gal(b1-4)Glc): -0.381 | glycan array binding signal (z-score) [30]: -0.452 | glycan array binding signal (z-score) [31]: -0.46 | glycan array binding signal (z-score) (GlcNAc(b1-3)GalNAc): -0.36 | glycan array binding signal (z-score) (GlcNAc(b1-3)Man): -0.183 | glycan array binding signal (z-score) [32]: -0.431 | glycan array binding signal (z-score) [33]: -0.403 | glycan array binding signal (z-score) [34]: -0.397 | glycan array binding signal (z-score) [35]: -0.344 | glycan array binding signal (z-score) (GlcNAc(b1-4)GlcNAc): -0.002 | glycan array binding signal (z-score) [36]: -0.487 | glycan array binding signal (z-score) [37]: -0.468 | glycan array binding signal (z-score) [38]: -0.398 | glycan array binding signal (z-score) [39]: -0.434 | glycan array binding signal (z-score) [40]: -0.5
